The subject of experiment [1] is HSkMC (human skeletal muscle cells). The experiment in a line: cytotoxicity call (relative viability < 0.9). Particulars: 10 µM.
Experiment [2] has as its system HepG2. The experiment in a line: cytotoxicity call (relative viability < 0.9). Particulars: 10 µM.
Experiment [3] has as its system S. aureus RN4220. The experiment can be described thus: growth inhibition call (relative growth <= 0.2). Particulars: 50 µM.

SMILES strings stand for the structures. Some of the results follow.

For 28 compounds, cytotoxicity call and growth inhibition call results are on record in the antibiotic and cytotoxicity screens of Wong et al. (2023).

For `C[C@@H]1CN([C@H](C)CO)C(=O)CCCn2cc(nn2)CO[C@H]1CN(C)Cc1ccc2c(c1)OCCN2C`, the cytotoxicity call in experiment [1] and in experiment [2] was “inactive” throughout. Besides, the growth inhibition call in experiment [3] is “inactive”.
Consider `Cc1noc(C)c1NC(=O)Nc1cccc2c1O[C@@H](CN(C)C(=O)NC(C)C)[C@@H](C)CN([C@H](C)CO)C2=O`, for which the cytotoxicity call in experiment [1] and in experiment [2] was “inactive” in each case. In experiment [3], the growth inhibition call was “inactive”.
Regarding `C[C@@H]1CCCCO[C@@H](CN(C)Cc2ccncc2)[C@H](C)CN([C@H](C)CO)C(=O)c2cc(NC(=O)Nc3ccccc3)ccc2O1`, the cytotoxicity call in experiment [1] and in experiment [2] was “inactive” each time. Also, in experiment [3], the growth inhibition call is “inactive”.
As for `O=C(C[C@@H]1C[C@@H]2c3cc(NC(=O)Cc4ccncc4)ccc3O[C@@H]2[C@@H](CO)O1)NCc1cccc(F)c1`, the cytotoxicity call in experiment [1] and in experiment [2] was “inactive” throughout. For the same compound, the growth inhibition call in experiment [3] is “inactive”.
Consider `COc1ccc(NC(=O)Nc2ccc3c(c2)C(=O)N([C@@H](C)CO)C[C@H](C)[C@@H](CN(C)C(=O)CCC(F)(F)F)OCCCC[C@H](C)O3)cc1`, for which the cytotoxicity call in experiment [1] and in experiment [2] was “inactive” each time. In experiment [3], the growth inhibition call was “inactive”.
As for `CN(C)C(=O)C[C@@H]1C=C[C@@H](NC(=O)C2CCOCC2)[C@H](CO)O1`, the cytotoxicity call in experiment [1] and in experiment [2] was “inactive” throughout. Moreover, the growth inhibition call in experiment [3] was “inactive”.
As to `C[C@@H]1CN([C@@H](C)CO)S(=O)(=O)c2ccc(C#CC3CC3)cc2O[C@H]1CN(C)C(=O)c1cccc(F)c1`, the cytotoxicity call in experiment [1] and in experiment [2] was “inactive” throughout. Besides, in experiment [3], the growth inhibition call is “inactive”.
Regarding `CCCNC(=O)N1C[C@@H](O)COC[C@@H]2O[C@@H](CC(=O)NCc3ccncn3)CC[C@H]21`, the cytotoxicity call in experiment [1] and in experiment [2] was “inactive” each time. Besides, the growth inhibition call in experiment [3] is “inactive”.
With `CC(C)[C@@H](C(=O)O)n1cnnn1`, the cytotoxicity call in experiment [1] and in experiment [2] was “inactive” throughout. The growth inhibition call in experiment [3] was “inactive”.
Turning to `C[C@H]1CN([C@@H](C)CO)S(=O)(=O)c2ccc(C#CC3CCCC3)cc2O[C@H]1CN(C)C(=O)Cc1ccncc1`, the cytotoxicity call in experiment [1] and in experiment [2] was “inactive” in each case. Also, the growth inhibition call in experiment [3] is “inactive”.
For the compound `C[C@H](CO)N1C[C@H](C)[C@H](CN(C)C(=O)CN(C)C)Oc2cc(C#Cc3ccc(F)cc3)ccc2S1(=O)=O`, the cytotoxicity call in experiment [1] and in experiment [2] was “inactive” in each case. Also, the growth inhibition call in experiment [3] was “inactive”.
Take `COc1ccc(NC(=O)Nc2ccc3c(c2)C(=O)N([C@@H](C)CO)C[C@H](C)[C@H](CN(C)Cc2ccc(C(=O)O)cc2)OCCCC[C@H](C)O3)cc1`: the cytotoxicity call in experiment [1] and in experiment [2] was “inactive” in each case. In addition, the growth inhibition call in experiment [3] is “inactive”.
Consider `C[C@H]1CN([C@@H](C)CO)C(=O)c2cc(C#CCc3ccccc3)cnc2O[C@@H]1CN(C)C(=O)C1CCOCC1`, for which the cytotoxicity call in experiment [1] and in experiment [2] was “inactive” each time. In addition, the growth inhibition call in experiment [3] was “inactive”.
Turning to `Cc1ccc(S(=O)(=O)Nc2ccc3c(c2)C(=O)N([C@H](C)CO)C[C@@H](C)[C@@H](CN(C)C(=O)NC(C)C)O3)cc1`, the cytotoxicity call in experiment [1] and in experiment [2] was “inactive” each time. For the same compound, in experiment [3], the growth inhibition call was “inactive”.
Regarding `C[C@]12C[C@@H](O)[C@@H]3C[C@@]1(O[C@@H]1O[C@H](CO)[C@@H](O)[C@H](O)[C@H]1O)[C@@]3(COC(=O)c1ccccc1)C(=O)O2`, the cytotoxicity call in experiment [1] and in experiment [2] was “inactive” each time. Moreover, in experiment [3], the growth inhibition call is “inactive”.
For `C[C@@H]1CN([C@@H](C)CO)C(=O)CCCn2cc(nn2)CO[C@@H]1CN(C)C(=O)Nc1ccc(C(F)(F)F)cc1`, the cytotoxicity call in experiment [1] and in experiment [2] was “inactive” each time. Further, the growth inhibition call in experiment [3] is “inactive”.
For `C[C@@H]1CCCCO[C@@H](CN(C)S(=O)(=O)c2cn(C)cn2)[C@H](C)CN([C@@H](C)CO)C(=O)c2cc(NC(=O)CCCN(C)C)ccc2O1`, the cytotoxicity call in experiment [1] and in experiment [2] was “inactive” in each case. The growth inhibition call in experiment [3] is “inactive”.
Regarding `C[C@H]1CC/C=C\[C@H]2O[C@@]34C=CCN(c5ccc6ccccc6c5)C(=O)[C@H]3N(CCCO)C(=O)[C@@H]4[C@@H]2C(=O)O1`, the cytotoxicity call in experiment [1] and in experiment [2] was “inactive” throughout. Moreover, in experiment [3], the growth inhibition call is “inactive”.
Regarding `C[C@@H]1CCCCO[C@H](CN(C)Cc2ccc(C(F)(F)F)cc2)[C@@H](C)CN([C@H](C)CO)C(=O)c2cc(NC(=O)c3ccncc3)ccc2O1`, the cytotoxicity call in experiment [1] and in experiment [2] was “inactive” each time. Besides, the growth inhibition call in experiment [3] is “inactive”.
As to `Cc1noc(C)c1S(=O)(=O)Nc1ccc2c(c1)CC(=O)N([C@H](C)CO)C[C@H](C)[C@H](CN(C)S(=O)(=O)c1cn(C)cn1)O2`, the cytotoxicity call in experiment [1] and in experiment [2] was “inactive” in each case. Further, the growth inhibition call in experiment [3] is “inactive”.
As for `C[C@@H]1CN([C@H](C)CO)C(=O)c2cccc(NC(=O)NC3CCCCC3)c2O[C@H]1CN(C)Cc1ccc(Oc2ccccc2)cc1`, the cytotoxicity call in experiment [1] and in experiment [2] was “inactive” each time. For the same compound, the growth inhibition call in experiment [3] was “inactive”.
In the case of `COc1ccc(CN(C)C[C@@H]2Oc3ccc(NC(=O)Cn4cnnn4)cc3CC(=O)N([C@H](C)CO)C[C@H]2C)cc1`, the cytotoxicity call in experiment [1] and in experiment [2] was “inactive” throughout. Further, the growth inhibition call in experiment [3] was “inactive”.
Turning to `CO[C@H]1CN(C)C(=O)c2cc(NC(=O)CC(F)(F)F)ccc2OC[C@H](C)N(S(=O)(=O)c2cn(C)cn2)C[C@H]1C`, the cytotoxicity call in experiment [1] and in experiment [2] was “inactive” in each case. Besides, the growth inhibition call in experiment [3] is “inactive”.
Consider `C[C@@H]1CN([C@@H](C)CO)C(=O)Cc2cc(NC(=O)Nc3cccc4ccccc34)ccc2O[C@@H]1CN(C)Cc1ccc(C(=O)Nc2ccccc2N)cc1`, for which the cytotoxicity call in experiment [1] and in experiment [2] was “inactive” in each case. For the same compound, the growth inhibition call in experiment [3] is “inactive”.
`CNC[C@@H]1Oc2ccc(NC(=O)CCN3CCOCC3)cc2CC(=O)N([C@@H](C)CO)C[C@H]1C`: the cytotoxicity call in experiment [1] and in experiment [2] was “inactive” in each case. Further, in experiment [3], the growth inhibition call was “inactive”.
Regarding `CCN(CC)CCCC(C)Nc1ccnc2cc(Cl)ccc12.O=P(O)(O)O.O=P(O)(O)O` (centres undefined), the cytotoxicity call in experiment [1] is “inactive”. Also, in experiment [2], the cytotoxicity call is “active”. In addition, in experiment [3], the growth inhibition call was “inactive”.
On to `O=C1O[C@H](CO)[C@@H](O)[C@H](O)[C@H]1O`, for which the cytotoxicity call in experiment [1] and in experiment [2] was “inactive” in each case. Further, in experiment [3], the growth inhibition call was “inactive”.
In the case of `C[C@@H]1CN([C@@H](C)CO)C(=O)c2cc(NC(=O)Nc3ccc(F)cc3)ccc2O[C@@H](C)CCCCO[C@H]1CN(C)CC1CC1`, the cytotoxicity call in experiment [1] and in experiment [2] was “inactive” in each case. In experiment [3], the growth inhibition call is “inactive”.
